Out of some 310,000 compounds screened, about 14,000 (4.5%) showed an effect of 50% or more. Effects have a minus sign here. The list shows a part of the results.
target: human ether-à-go-go-related gene (hERG) potassium channel (human, UniProt Q12809); assay: primary screen, population patch clamp on CHO cells stably expressing hERG
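Further: peak tail current of the secondary pulse compared with the same well before compound.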

Sequence of human ether-à-go-go-related gene (hERG) potassium channel (Q12809 whole entry, looked up): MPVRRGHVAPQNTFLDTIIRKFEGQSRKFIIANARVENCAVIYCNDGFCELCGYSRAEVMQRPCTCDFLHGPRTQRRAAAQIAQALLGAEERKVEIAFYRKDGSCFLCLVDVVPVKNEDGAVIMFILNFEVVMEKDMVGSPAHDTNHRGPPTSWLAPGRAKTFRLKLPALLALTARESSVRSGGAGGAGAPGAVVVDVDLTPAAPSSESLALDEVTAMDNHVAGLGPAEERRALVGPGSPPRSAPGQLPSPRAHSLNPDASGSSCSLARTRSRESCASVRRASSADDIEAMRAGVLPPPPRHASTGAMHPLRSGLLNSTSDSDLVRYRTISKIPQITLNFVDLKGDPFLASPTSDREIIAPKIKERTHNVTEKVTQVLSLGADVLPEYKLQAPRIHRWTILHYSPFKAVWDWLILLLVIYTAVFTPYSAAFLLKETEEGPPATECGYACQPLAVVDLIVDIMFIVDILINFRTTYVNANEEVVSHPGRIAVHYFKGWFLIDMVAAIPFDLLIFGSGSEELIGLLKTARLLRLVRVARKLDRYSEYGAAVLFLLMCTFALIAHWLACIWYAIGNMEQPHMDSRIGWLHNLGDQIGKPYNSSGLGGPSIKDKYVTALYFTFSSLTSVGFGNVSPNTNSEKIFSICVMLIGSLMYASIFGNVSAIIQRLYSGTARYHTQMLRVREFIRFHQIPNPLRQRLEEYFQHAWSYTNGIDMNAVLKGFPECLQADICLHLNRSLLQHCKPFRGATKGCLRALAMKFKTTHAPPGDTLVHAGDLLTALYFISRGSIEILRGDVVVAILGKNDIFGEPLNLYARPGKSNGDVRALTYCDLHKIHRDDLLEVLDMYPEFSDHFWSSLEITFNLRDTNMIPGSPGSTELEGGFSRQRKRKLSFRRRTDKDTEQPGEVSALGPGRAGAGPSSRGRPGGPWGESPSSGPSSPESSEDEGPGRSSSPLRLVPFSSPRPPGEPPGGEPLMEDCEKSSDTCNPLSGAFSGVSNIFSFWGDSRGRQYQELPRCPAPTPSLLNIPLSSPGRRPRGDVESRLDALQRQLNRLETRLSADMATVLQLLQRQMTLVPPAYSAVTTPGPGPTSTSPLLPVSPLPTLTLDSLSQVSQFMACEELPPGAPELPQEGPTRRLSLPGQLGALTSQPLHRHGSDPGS

Row | Structure (SMILES) | hERG current change (%, negative = inhibition) at 10uM
1 | CCOC(=O)Cc1nnn(CC(=O)OCC)n1 | 6.19%
2 | CCOc1ccc(C2CC(c3ccc(OC)c(OC)c3)n3nc(N)nc3N2)cc1 (centres unmarked) | -3.39%
3 | CC(C)(C)C(=O)N1N=C(c2cccc(NS(C)(=O)=O)c2)CC1c1cccs1 (centres unmarked) | -24.7%
4 | COCCCNc1nc2c(c(=O)n(Cc3ccc(OC)cc3)c(=O)n2C)n1C | 16.3%
5 | Cc1c(C)c(C)c(C(=O)c2ccc(NC(=O)c3ccccc3C(=O)O)cc2)c(C)c1C | 15.6%
6 | Cc1ccccc1NS(=O)(=O)c1ccc(N2CCCC2=O)cc1 | 1.61%
7 | O=C(c1ccc(OC2CCN(CCCc3ccccc3)CC2)cc1)N1CCCC1 | -69.8%
8 | O=C(CCSc1ccccc1)NCCN1CCOCC1 | -1.84%
9 | CC(C)NC(=O)CN(CCc1ccccc1)S(C)(=O)=O | 10.8%
10 | O=C(COC(=O)c1ccc(F)c(S(=O)(=O)N2CCOCC2)c1)c1ccc(Cl)cc1 | -31.1%
11 | COc1cc2nc(C(C)(C)C)oc(=O)c2cc1OC | 10.6%
12 | CC1CCc2c(C(=O)NCc3cccnc3)csc2C1 (centres unmarked) | -25.7%
13 | COc1ccccc1N1CCN(Cc2c(F)cccc2Cl)CC1 | -3.52%
14 | O=C(O)CSc1cc(C(F)(F)F)nc(-c2ccccn2)n1 | 5.55%
15 | Clc1ccccc1-c1ncc(-c2ccccc2)o1 | -7.26%
16 | Cn1c(=O)[nH]c(=O)c2c1nc(SCC(O)CO)n2Cc1ccccc1Cl (centres unmarked) | -2.7%
17 | O=C(Nc1ccccc1)c1cccnc1N1CCOCC1 | 19.4%
18 | O=C(COc1ncnc2cc(Cl)ccc12)c1ccc2c(c1)OCCO2 | 18.1%
19 | S=C(NCc1ccco1)N1CCN(C(c2ccccc2)c2ccccc2)CC1 | 0.301%
20 | O=C(COC(=O)C1CCN(/C=C/C(=O)C(F)(F)F)CC1)Nc1ccccc1 | -9.73%
21 | Cc1onc(-c2ccccc2)c1C1=N/C(=C\c2ccccc2F)C(=O)O1 | 27.6%
22 | O=C(Nc1ccon1)c1ccc(Cl)c(S(=O)(=O)N2CCCCC2)c1 | 19.3%
23 | CCOc1cc([C@H]2[C@@H]3CCCC[C@]3(O)CCN2CC(=O)NCc2ccco2)ccc1O | -3.22%

Row | Structure (SMILES) | hERG current change (%, negative = inhibition) at 10uM
24 | CCCCc1cc(=O)oc2cc(C)cc(OCC(=O)NCc3ccncc3)c12 | -84.1%
25 | CCC(C)(C)n1nnnc1C(c1ccc(F)cc1)N1CCC(C(N)=O)CC1.Cl (centres unmarked) | 19.7%
26 | CCCCN(Cc1ccccc1)C(=O)CCN1C(=O)C2C3C=CC(C3)C2C1=O (centres unmarked) | 1.48%
27 | O=C(Nc1ccncc1)c1ccc(NS(=O)(=O)c2ccc3[nH]c(=O)[nH]c3c2)cc1 | 40%
28 | Cc1ccc(S(=O)(=O)NCC2CCC(C(=O)O)CC2)cc1 (centres unmarked) | -5.39%
29 | Cc1ccc(C(=O)c2ccc(N3CCOCC3)c(F)c2)cc1 | -22%
30 | O=C1OC(OC2CCCCC2)(c2ccccc2)c2ccccc21 (centres unmarked) | -10.4%
31 | CCS(=O)(=O)c1ncc(Cl)c(C(=O)Nc2ccc(C)cc2)n1 | 15%
32 | Cc1ccc(-c2cc(C(=O)N/N=C/c3ccc(F)cc3)n[nH]2)o1 | 4.98%
33 | Cn1c(=O)c2c(O)c(C=Nc3ccc(F)cc3)c(=O)n(C)c2n(C)c1=O | 5.63%
34 | C[C@H](NC(=O)c1nc[nH]c1C(=O)N[C@@H](C)C(=O)OC(C)(C)C)C(=O)OCc1ccccc1 | -20.4%
35 | Cc1nnc(NC(=O)Cn2cnc3c2c(=O)n(C)c(=O)n3C)s1 | 3.62%
36 | NS(=O)(=O)c1ccc(N/N=C/c2ccc3c(c2)OCO3)c([N+](=O)[O-])c1 | 2.79%
37 | COc1cc(C(=O)NC(=S)Nc2ccc(Cc3ccncc3)cc2)cc(OC)c1OC | -18.9%
38 | COc1ccc(C(=O)Oc2ccc3oc(=O)sc3c2)cc1 | -3.51%
39 | Cc1ccc(O)c(NC(=O)CCCC(=O)O)c1 | 5%
40 | CC1(C)N=C(N)N=C(N)N1c1ccc(F)cc1F.Cl | 6.69%
41 | COc1ccc2[nH]c(=O)c3c(c2c1)OC(C)(C)C=C3 | 6.92%
42 | Cc1ccc(S(=O)(=O)NCC(=O)Nc2ccc3c(c2)OCCO3)cc1 | 18.9%
43 | C=CCN(C(=O)CCC(=O)Nc1cc(C)on1)C(C(=O)NC(C)(C)C)c1ccc(OC)cc1 (centres unmarked) | -4.11%
44 | O=C(CN1CCCCCC1)Nc1c(Cl)cc(Cl)cc1Cl | -5.28%
45 | COc1ccccc1C1=NOC(C)(c2nnc(Cc3ccccc3)o2)C1 (centres unmarked) | 5.63%
46 | Cl.NC(=S)NC(c1ccccc1)c1ccncc1 (centres unmarked) | -9.63%

Row | Structure (SMILES) | hERG current change (%, negative = inhibition) at 10uM
47 | COc1cccc(OC)c1-c1nn2c(-c3cc(-c4ccccc4)n[nH]3)nnc2s1 | 9.5%
48 | O=C(Cc1ccccc1)NNC1CC(=O)N(c2ccccc2)C1=O (centres unmarked) | 10.8%
49 | CCC(C)[C@H]1COCCS(=O)(=O)N1Cc1ccccc1F (some centres unmarked) | -18.5%
50 | Cc1cnc(NC(=O)c2ccc(F)c(S(=O)(=O)N3CCOCC3)c2)s1 | -46.4%
51 | Cc1cc(C(F)(F)F)nn1CC(=O)N(C)C1CCCCC1 | 22.7%
52 | O=S(=O)(c1ccc(NC(=S)N2CCN(c3ccccc3F)CC2)cc1)N1CCOCC1 | 21.1%
53 | Cc1cc(N)n(-c2ccc(S(=O)(=O)N3CCCC3)cc2[N+](=O)[O-])n1 | -3.48%
54 | CC(Oc1ccccc1)C(=O)Nc1ccc(C(N)=O)cc1 (centres unmarked) | -11.9%
55 | Nc1ccc2c(c1)CC(=O)c1ccccc1S2 | -2.93%
56 | CS(=O)(=O)N(CC(=O)NC1CCCCC1)c1cccc(Cl)c1 | -2.87%
57 | CN(C)S(=O)(=O)c1cccc(C(=O)NCCc2ccccc2)c1 | -8.76%
58 | Cc1ccc(N(C(=O)Cc2cccs2)C(C(=O)NCC2CCCO2)c2ccncc2)cc1 (centres unmarked) | 11.5%
59 | O=C(Nc1ccc(F)cc1)N(CCCN1CCOCC1)Cc1cc2cc3c(cc2[nH]c1=O)OCO3 | -49.3%
60 | COc1ccc(-c2nc(C)ncc2N=Nc2ccccc2)cc1 | 6.49%
61 | Cc1ccc(S(=O)(=O)C2(C(=O)NC3CCCC3)CC2)cc1 | -7.75%
62 | COc1cc2cc(CCCOC(=O)c3ccc(C#N)cc3)oc(=O)c2cc1OC | -65%
63 | Cc1ccc(S(=O)(=O)Nc2ccccc2F)cc1C(=O)NCc1ccco1 | 6.45%
64 | CN(C)c1nc(Cl)nc(N(C#N)CCOc2ccccc2)n1 | 7.92%
65 | Cc1noc(C)c1C(=O)NC(C)C1CCCO1 (centres unmarked) | 3.08%
66 | CN(C)C(=O)c1cn(-c2ccccc2)nc1-c1cc2ccccc2o1 | -10.3%
67 | Cc1cccc2sc(NC(=O)[C@@H]3CCCN3C(=O)c3cccs3)nc12 | 2.2%
68 | CC(C)Cn1c(N)c(C(=O)COC(=O)CCc2nc3ccccc3s2)c(=O)n(C)c1=O | -69.3%
69 | COCCN(Cc1cc2cccc(C)c2n2nnnc12)C(=O)C(F)(F)F | -8.44%

Row | Structure (SMILES) | hERG current change (%, negative = inhibition) at 10uM
70 | CCOc1ccc(N2CC(C(=O)Nc3cc(Cl)ccc3-n3cncn3)CC2=O)cc1 (centres unmarked) | -64.2%
71 | O=C(COC(=O)CNC(=O)c1ccc(Cl)cc1Cl)Nc1cccc(S(=O)(=O)N2CCCC2)c1 | -16.7%
72 | COc1cccc(-c2nn(-c3ccccc3)cc2CN(C)Cc2c(C)nc3ccccn23)c1 | -59.9%
73 | O=C(CSc1nnc(-c2ccccc2)o1)NC1CCCC1 | -20.2%
74 | CC1CCCCC1NC(=O)c1nn(C)c(=O)c2ccccc12 (centres unmarked) | -11.8%
75 | CC(C)C(=O)Nc1cccc(C(=O)Nc2cc([N+](=O)[O-])ccc2F)c1 | 5.51%
76 | Cc1ccc(NC(=O)c2cccnc2C(=O)Nc2ccc(C)cc2)cc1 | 8.73%
77 | COc1ccccc1CCNC1CCCC(C)C1 (centres unmarked) | -11.9%
78 | COc1ccccc1OCC(O)CN1CCN(CC(=O)Nc2c(C)cccc2C)CC1 (centres unmarked) | -18.6%
79 | O=C1CSC(c2ccccc2)N1CC(O)c1ccc([N+](=O)[O-])cc1 (centres unmarked) | -12.1%
80 | COc1cccc(C2CC(c3ccccc3)n3ncnc3N2)c1 (centres unmarked) | -19.7%
81 | Cc1nn(CC(=O)N2CCN(c3ccccn3)CC2)c(=O)c2cc3sccc3n12 | 18.7%
82 | O=C(COC(=O)c1cccnc1Cl)Nc1ccccc1OC(F)F | -11.3%
83 | Cc1ccccc1NC(=O)N1CCC(NC(=O)C2CCCCC2)CC1 | 11.6%
84 | CCOc1ccc(-n2c(-c3ccc(Cl)cc3)c[n+]3c2SCC3)cc1.[Br-] | -80.9%
85 | COc1ccc(C(=O)Nc2ccc(N3CCCC3)cc2)cc1 | -3.35%
86 | CC(C)c1nnc(NC(=O)COc2ccc3ccccc3c2)s1 | -17%
87 | CCN(Cc1ccncc1)C(=O)c1cc(COc2ccc(F)cc2Cl)on1 | -44%
88 | Fc1ccccc1N1CCN(c2nc(-c3cccs3)nc3ccccc23)CC1 | 8.57%
89 | C#CCOCCOCCOCCNc1nc(N2CCN(C(=O)[C@H](CCCC[NH3+])n3cc(CCCC)nn3)CC2)nc(N2CCN(C(=O)[C@H](Cc3ccc(O)cc3)n3cc(CCO)nn3)CC2)n1.[Cl-] | 3.29%

From paper PMC4336329 (PLoS ONE, 2015)
